Data taken from PubChem BioAssay AID686978 (National Center for Advancing Translational Sciences (NCATS), 2013).
“And” between values parts separate entries of the source, which are not always exact repeats. Equal entries are not always repeated. Hit rate of the full screen: of about 420,000 compounds, about 64,000 (15%) were called active. This list was built around the results that the source calls inconclusive (neither active nor inactive); the mix of calls is not that of the screen. Calls come from the whole dose curve; as a rule, active = well fitted inhibition curve with a large enough effect; inconclusive = small, poorly fitted or top-dose-only effect; inactive = flat fitted curve, though single readings scatter. Potencies of inconclusive entries are left out as doubtful fits.
% is set by controls: 0 for no effect and ±100 for the full control effect; potency is the fitted concentration of half-maximal effect; tags give direction and shape of the fitted curve.

Assay: qHTS for Inhibitors of human tyrosyl-DNA phosphodiesterase 1 (TDP1): qHTS in cells in absence of CPT; note: nearly all actives have a fitted effect of over 55% in size
Details: DT40 Tdp1-/- hTDP1 cells, no CPT, ATP luminescence, 48 h; activity change, negative = growth inhibition: at 46.2 µM (top of the series) unless noted
Outline: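 Luminescent ATP content (CellTiter-Glo) served as the growth readout. Knockout chicken DT40 cells expressing human TDP1 were exposed to compounds without camptothecin for a minimum 48 hr at 37 °C.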
In the case of COc1ccc2nc(SC(C(=O)c3ccccc3)c3ccccc3)nc(C)c2c1 (stereo not drawn), the Potency is reported as inconclusive [inhibitor, single point]. For CCc1c(C(=O)NNC(=S)NC2CCCCC2)csc1C, the Potency was inconclusive [inhibitor, single point]. In the case of COc1cc(C(=O)N=c2sc3ccccc3n2C)cc(OC)c1OC, the Potency is reported as active: 8.2 µM. With CC(=O)c1ccc(Nc2nc(C(N)COCc3ccccc3)cs2)cc1 (stereo not drawn) the Potency was inconclusive [inhibitor, single point]. With Cc1ccc(-c2csc(Nc3ccc(C(=O)O)cc3)[n+]2Cc2ccccc2)cc1 the Potency was inconclusive [inhibitor, full curve, poor fit]. For O=C(NCCNCCO)C1(C(F)(F)F)C/C(=C\CCO)CCCO1 (stereo not drawn), the Potency was “inactive”. For Cc1ccc(C)c(-c2csc(NC(=O)c3cnccn3)n2)c1, the Potency was inconclusive [inhibitor, single point]. For CCC1CCCCN1C(=O)COc1c(Br)cc(Br)c2cccnc12 (stereo not drawn), the Potency was inconclusive [inhibitor, single point]. In the case of Cc1ccc2nc(-c3ccc(NC(=O)c4ccc(S(C)(=O)=O)cc4)cc3)sc2c1, the Potency is reported as inconclusive [inhibitor, partial curve]. For N#Cc1cccnc1N1CCN(C(c2ccnc3ccccc23)c2nnnn2-c2ccc3c(c2)OCCO3)CC1 (stereo not drawn), the Potency was inconclusive [inhibitor, single point]. For Cc1ccc(NC(=O)CC(C)S(=O)(=O)c2ccc3c(c2)NC(=O)CO3)c(Cl)c1 (stereo not drawn), the activity change, negative = growth inhibition was inconclusive: -31% [inhibitor]. For CCn1c(=N)n(CC(=O)c2ccc(Br)s2)c2ccccc21, the Potency was inconclusive [inhibitor, single point]. With CCN(CC)CC(=O)N1c2ccccc2Oc2c(c(=O)n(C)c(=O)n2C)C1c1cccc([N+](=O)[O-])c1 (stereo not drawn) the Potency was “inactive”. For CC(C)c1ccc2oc(-c3ccc(NC(=O)c4cccc(Br)c4)cc3)nc2c1, the Potency was inconclusive [inhibitor, single point]. For COc1c(Cl)cc(-c2noc(C)c2C(=O)NCCc2ccc(C)cc2)cc1Cl, the Potency was inconclusive [inhibitor, single point]. For C=CC(COCc1ccccc1)N([C@@H](Cc1ccccc1)C(=O)OC)S(=O)(=O)c1ccccc1Br (stereo partly drawn), the Potency was active: 12.6 µM and active: 23.1 µM. In the case of O=C(CN1CCN(S(=O)(=O)c2cccc(Br)c2)CC1)N1CCCCC1, the Potency is reported as “inactive”. In the case of COc1ccc(C2CC(=O)c3c(C)nc(N4CCN(Cc5ccccc5)CC4)nc3C2)cc1OC (stereo not drawn), the Potency is reported as active: 13 µM.
